# In publication PMC4336329 (PLoS ONE, 2015):
# Out of some 310,000 compounds screened, about 2,200 (0.71%) showed an effect of 50% or more. The effect is printed as a negative number. The list shows a part of the results.
# Molecular target: human ether-à-go-go-related gene (hERG) potassium channel (human, UniProt Q12809)
# Assay: primary screen, population patch clamp on CHO cells stably expressing hERG
# Chain of human ether-à-go-go-related gene (hERG) potassium channel (Q12809 whole entry, looked up): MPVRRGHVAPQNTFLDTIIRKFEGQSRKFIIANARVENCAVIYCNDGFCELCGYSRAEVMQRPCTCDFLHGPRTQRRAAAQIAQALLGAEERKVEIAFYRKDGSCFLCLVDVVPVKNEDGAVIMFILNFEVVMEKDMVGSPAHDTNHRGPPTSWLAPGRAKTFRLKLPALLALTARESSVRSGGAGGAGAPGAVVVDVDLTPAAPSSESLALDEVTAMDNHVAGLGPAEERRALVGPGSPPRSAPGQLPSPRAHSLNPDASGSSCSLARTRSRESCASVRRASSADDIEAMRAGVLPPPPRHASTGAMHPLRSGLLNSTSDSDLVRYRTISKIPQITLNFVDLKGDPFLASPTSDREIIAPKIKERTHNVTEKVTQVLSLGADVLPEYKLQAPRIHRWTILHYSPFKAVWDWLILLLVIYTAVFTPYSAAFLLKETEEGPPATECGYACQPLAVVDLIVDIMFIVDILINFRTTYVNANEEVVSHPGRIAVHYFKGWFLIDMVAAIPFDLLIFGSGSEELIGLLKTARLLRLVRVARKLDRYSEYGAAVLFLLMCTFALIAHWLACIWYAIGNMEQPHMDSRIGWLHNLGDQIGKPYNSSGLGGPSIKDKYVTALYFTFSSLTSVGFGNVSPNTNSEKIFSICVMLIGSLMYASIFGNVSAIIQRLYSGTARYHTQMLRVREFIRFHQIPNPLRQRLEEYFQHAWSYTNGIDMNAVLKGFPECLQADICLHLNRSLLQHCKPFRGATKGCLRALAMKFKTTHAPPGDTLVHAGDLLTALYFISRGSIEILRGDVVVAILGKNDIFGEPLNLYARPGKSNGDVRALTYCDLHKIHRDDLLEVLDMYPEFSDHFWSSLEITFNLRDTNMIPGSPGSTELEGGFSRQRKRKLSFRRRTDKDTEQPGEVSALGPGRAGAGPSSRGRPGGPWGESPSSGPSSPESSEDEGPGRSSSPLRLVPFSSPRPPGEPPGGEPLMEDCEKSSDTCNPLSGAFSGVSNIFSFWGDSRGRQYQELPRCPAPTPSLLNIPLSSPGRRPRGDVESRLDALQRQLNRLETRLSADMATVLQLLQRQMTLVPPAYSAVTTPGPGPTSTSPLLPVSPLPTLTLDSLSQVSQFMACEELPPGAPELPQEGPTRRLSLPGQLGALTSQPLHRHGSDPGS
row,Structure (SMILES),"hERG current change (%, negative = inhibition) at 1uM"
1,CC(C)N1CCc2c(sc(NC(=O)c3ccc(S(=O)(=O)N4CCOCC4)cc3)c2C#N)C1,14.1%
2,CCNC(=S)NNC(=O)CSc1nc2ccccc2n1C,7.28%
3,CC(C)(C)c1ccc(-n2ncc3c2CCCC3NC(=O)CCn2cncn2)cc1 (stereo not drawn),-5.58%
4,COc1ccc(/C(C)=N/NC(=O)c2cc(-c3cccnc3)nc3ccccc23)cc1,5.97%
5,CCCCCCOc1ccc(N2C(=O)CC(SC(=NCC)NCC)C2=O)cc1 (stereo not drawn),16.3%
6,CCN(CC)C(=O)[C@]1(c2ccccc2)C[C@@H]1CN.Cl,1.54%
7,CC(C)NC(=O)C1CCN(Cc2cccc(Oc3ccccc3)c2)CC1.O=C(O)C(=O)O,8.88%
8,CCc1nnc(NC(=O)[C@@H](NC(=O)c2ccc(C(C)(C)C)cc2)C(C)C)s1,12.3%
9,COc1ccc(C2c3c4c(n(C)c3CCN2C)CCN(C)C4c2ccc(OC)cc2)cc1.Cl (stereo not drawn),-0.844%
10,O=C(c1ccncc1)N1CCN(S(=O)(=O)c2cccc(F)c2)CC1,5.77%
11,COc1ccc(OC)c(C(=O)COC(=O)C2CC3CCCC(C2)C3=O)c1 (stereo not drawn),10.9%
12,CC(C)c1cc(-c2n[nH]c(=S)n2Cc2ccccc2)cs1,17.1%
13,COc1cc(NS(=O)(=O)c2ccc(N)cc2)nc(OC)n1,9.86%
14,CCCC(=O)N1CCN(c2nc3ccccc3s2)CC1,-9.61%
15,Br.C=CCN1CCc2c(cc(O)c(O)c2Br)[C@@H](c2ccccc2)C1,3.89%
16,CCCCN1C(=O)/C(=C2/Sc3ccccc3N2C)S/C1=N\c1ncn[nH]1,6.9%
17,Cc1nnc(SCC(=O)NC2CC2)n1CCc1ccccc1,7.08%
18,CN(C)C(=O)c1cc(C(=O)c2ccccc2Br)c[nH]1,9.15%
19,CCn1cnc2c1c(=O)n(CC(=O)OC)c(=O)n2Cc1ccccc1,16.3%
20,COc1ccccc1C1(CCN=Cc2ccc(N(C)C)cc2)CCOC(C)(C)C1 (stereo not drawn),2.4%
21,Cc1ccc(S(=O)(=O)NCC(=O)N(CC(=O)NCc2ccco2)Cc2cccs2)cc1,-30.4%
22,COc1ccc(OC)c(-c2nc(CN(C)C(C)c3ccncn3)c(C)o2)c1 (stereo not drawn),6.56%

row,Structure (SMILES),"hERG current change (%, negative = inhibition) at 1uM"
1,Cc1ccc(C(=O)Nc2cccc(C(=O)N/N=C/c3ccccc3F)c2)cc1,11.5%
2,CCOC(=O)C1(C(F)(F)F)N=C(C(F)(F)F)Nc2cc(C)c(C)cc21 (stereo not drawn),7.95%
3,COc1ccc(Nc2ccc(N3C(=O)CCCC3=O)cc2[N+](=O)[O-])cc1OC,24.6%
4,COCc1cc(=O)n2[nH]c(C(C)(C)C)cc2n1,14.6%
5,COc1ccc(N2CCN(C(=O)c3c(-c4c(F)cccc4Cl)noc3C)CC2)cc1,14.4%
6,Cc1[nH]c2ccc(C(=O)N3CCN(c4ccc(F)cc4)CC3)cc2c1C,10.4%
7,C=CCn1c(SCC(=O)NCCOC)nnc1-c1cc2c(s1)CCC(CC)C2 (stereo not drawn),13.5%
8,CN/C(=C/[N+](=O)[O-])NCCSCc1ccc(CN(C)C)o1.Cl,13.2%
9,COc1ccc(C(=O)Nc2ccc3c(c2)C(=O)c2ccccc2C3=O)cc1OC,15.9%
10,CC(NC(=O)c1cc2c(s1)CS(=O)(=O)C2)c1ccccc1 (stereo not drawn),14.7%
11,C[C@H](NC(=O)c1ccccc1)C(=O)N1CCC2(CC1)NCCc1[nH]cnc12,11%
12,C=CCOc1c(Br)cc(CNc2ccc3[nH]c(=O)[nH]c3c2)cc1OCC,15.1%
13,COCCNC(=O)[C@@H]1CSC2c3ccccc3C(=O)N21 (stereo partly drawn),4.28%
14,Cc1ccc(NC2c3ncccc3C(=O)N2C2CCCCC2)cc1 (stereo not drawn),9.66%
15,CN(C)S(=O)(=O)c1cccc(NC(=O)COC(=O)c2cn(-c3ccccc3)nc2-c2ccccc2)c1,19.7%
16,CN(C)S(=O)(=O)c1ccc(C(=O)Nc2nc3ccccc3[nH]2)cc1,9.87%
17,Cn1c(SCC(=O)N2CCOCC2)nc2sc3c(c2c1=O)CCCC3,2.47%
18,CN(C)c1nc(SCC#N)nc(N2CCOCC2)n1,12.3%
19,CCn1ncc(CNC(=O)c2cccc([N+](=O)[O-])c2)c1C,0.549%
20,CN(C)S(=O)(=O)c1ccc(NC(=O)Cc2ccc(S(=O)(=O)N3CCOCC3)s2)cc1,8.77%
21,COC(=O)C[C@H]1c2ccccc2S(=O)(=O)N1c1cccc(OC)c1,3.39%
22,CCC(=O)Nc1sccc1C(=O)OC,8.58%

row,Structure (SMILES),"hERG current change (%, negative = inhibition) at 1uM"
1,CC1CN(CCc2ccccc2)c2nc3c(c(=O)[nH]c(=O)n3C)n2C1 (stereo not drawn),-4.08%
2,CCCN1CCc2c(sc(NC(=O)c3ccc(S(=O)(=O)N4CCCC4)cc3)c2C(N)=O)C1,16.4%
3,COc1ccc(CCNC(=O)NC2CCCCC2)cc1OC,6.75%
4,COc1cccc(CN2CCC(n3nccc3NC(=O)CCCc3ccccc3)CC2)c1,0.786%
5,CN1C(=O)c2ccc(NC(=S)NC(=O)C(C)(C)C)cc2C1=O,23%
6,Cc1cc(NCCCO)n2nc(-c3cccs3)cc2n1,1.45%
7,CC(C)(Oc1ccc(Cl)cc1)C(=O)NCc1ccncc1,6.96%
8,COc1ccc(C(C(=O)NCc2ccccc2)N(C(=O)c2snc(C(N)=O)c2N)C2CCCC2)cc1 (stereo not drawn),6.13%
9,Cc1ccc(CN(CC(=O)NCCc2ccccc2)C(=O)c2csnn2)cc1,-1.37%
10,CC(C(=O)O)c1ccc(N2Cc3ccccc3C2=O)cc1 (stereo not drawn),18.7%
11,COc1ccccc1NC(=S)N1CCC(c2nc3ccccc3o2)CC1,2.22%
12,CSCC[C@H](NC(=O)OC(C)(C)C)c1nnc(SCC(=O)N(C)C)o1,10.3%
13,O=C(Nc1ccc(Cl)c(S(=O)(=O)N2CCCCC2)c1)c1cnccn1,-2.78%
14,O=S(=O)(Nc1nc2c(s1)CCCC2)c1ccc2ccccc2c1,13.4%
15,COc1ccc(OCCCC(=O)Nc2nc(-c3ccccn3)cs2)cc1,9.37%
16,CCCCCc1cc(=O)oc2c(C(CCN3CCCCC3)c3ccc4c(c3)OCO4)c(OC)cc(OC)c12 (stereo not drawn),6.72%
17,COc1cc(C(=O)Nc2cc(-c3ccccc3)[nH]n2)cc(OC)c1OC,-2.63%
18,Cc1ccc(OCC(=O)N/N=C2/SCC(=O)N2Cc2ccccc2)cc1,0.612%
19,COCCNC(=O)C(c1cccnc1)N(Cc1ccccc1)C(=O)Cn1nnc2ccccc21 (stereo not drawn),9.91%
20,Cc1ccc(/C=N/NC(=O)c2nnn(-c3nonc3N)c2CN(C)C)o1,15.8%
21,COc1ccnc(N=CNOCc2cccc(C(F)(F)F)c2)c1C#N,12.8%
22,Cc1cccc(-c2ncc(CN3CCN(CCC(C)C)C(CCO)C3)cn2)c1 (stereo not drawn),-17.4%

row,Structure (SMILES),"hERG current change (%, negative = inhibition) at 1uM"
1,Cc1[nH]ccc(=O)c1OCc1ccc(Cl)cc1,4.38%
2,COc1cc(CNCc2cccnc2)ccc1OCC(=O)NC(C)(C)C.Cl,3.14%
3,O=C(Cc1ccccc1)NCCS(=O)(=O)N1CCN(c2cccc(Cl)c2)CC1,-48%
4,CC1(C)CC2CC(C)(CN2C(=O)COC(=O)Cn2[nH]c(=O)c3ccccc3c2=O)C1 (stereo not drawn),12.8%
5,CCCCC(=O)N1CCCC(c2nc3c(nnn3Cc3cc(C)ccc3C)c(=O)[nH]2)C1 (stereo not drawn),3.86%
6,COc1ccc(OC)c(S(=O)(=O)Nc2ccc3[nH]c(=O)[nH]c3c2)c1,10.8%
7,COc1cc(OC)cc(C(=O)NCC(=O)OCc2csc(-c3ccccc3)n2)c1,7.32%
8,COc1ccc(-c2cc(-c3ccccc3)no2)cc1,11.1%
9,COc1ccc(S(=O)(=O)N2CCC(C(=O)NCc3ccco3)CC2)cc1,-1.25%
10,COc1cc(C2C(C#N)=C(N)Oc3n[nH]c(-c4ccccn4)c32)cc(OC)c1OC (stereo not drawn),4.5%
11,COC(=O)CCc1cccc(CCC(=O)OC)c1,8.75%
12,O=C(O)c1cccc(NC(=S)N/N=C/c2ccccc2OCc2ccc(Br)cc2)c1,-6.99%
13,CC(C)Oc1cccc(C(=O)C2CCCN(S(C)(=O)=O)C2)c1 (stereo not drawn),10.2%
14,CCN(CC)S(=O)(=O)c1ccc(OC)c(NC(=S)Nc2cccc(C)c2C)c1,1.79%
15,CC1CC(C)CN(C(=O)CNS(=O)(=O)c2ccc(Br)s2)C1 (stereo not drawn),10.5%
16,O=c1[nH]c(O)c(C=Nc2ccccc2Oc2ccccc2)c(=O)[nH]1,8.3%
17,O=C(NC1CCCCCCC1)c1cc([N+](=O)[O-])ccc1Cl,6.96%
18,CSCC[C@H](NC(=O)c1cccc([N+](=O)[O-])c1C)c1nc2ccccc2[nH]1,1.04%
19,Cc1c(/C=C(\C#N)c2nn(-c3ccccc3)c(N)c2C#N)c2ccccc2n1Cc1ccc(F)cc1,1.42%
20,CCOC(=O)CN1C(=O)C(O)=C(C(C)=O)C1c1ccc(F)cc1 (stereo not drawn),9.29%
21,Cc1cc(C(=O)Nc2c(C)n(C)n(-c3ccccc3)c2=O)c(C)o1,19.2%
